{"source": "PubChem BioAssay AID624330", "about": "(Southern Research Specialized Biocontainment Screening …, 2012)", "note": "Screen size: about 340,000 compounds; about 2,100 (0.62%) were called active. The shares of active, inactive and inconclusive entries below differ from those in the screen.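 Rule for the calls: active = first-screen hits whose inhibition reached a set limit at any dose in the follow-up dose series; inconclusive = inhibition above the set first-screen limit but never retested; inactive = the rest.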", "data": [{"biological_target": "Rac GTPase-activating protein 1 (Homo sapiens) (UniProt Q9H0H5)", "sequence (Q9H0H5 whole entry, looked up)": "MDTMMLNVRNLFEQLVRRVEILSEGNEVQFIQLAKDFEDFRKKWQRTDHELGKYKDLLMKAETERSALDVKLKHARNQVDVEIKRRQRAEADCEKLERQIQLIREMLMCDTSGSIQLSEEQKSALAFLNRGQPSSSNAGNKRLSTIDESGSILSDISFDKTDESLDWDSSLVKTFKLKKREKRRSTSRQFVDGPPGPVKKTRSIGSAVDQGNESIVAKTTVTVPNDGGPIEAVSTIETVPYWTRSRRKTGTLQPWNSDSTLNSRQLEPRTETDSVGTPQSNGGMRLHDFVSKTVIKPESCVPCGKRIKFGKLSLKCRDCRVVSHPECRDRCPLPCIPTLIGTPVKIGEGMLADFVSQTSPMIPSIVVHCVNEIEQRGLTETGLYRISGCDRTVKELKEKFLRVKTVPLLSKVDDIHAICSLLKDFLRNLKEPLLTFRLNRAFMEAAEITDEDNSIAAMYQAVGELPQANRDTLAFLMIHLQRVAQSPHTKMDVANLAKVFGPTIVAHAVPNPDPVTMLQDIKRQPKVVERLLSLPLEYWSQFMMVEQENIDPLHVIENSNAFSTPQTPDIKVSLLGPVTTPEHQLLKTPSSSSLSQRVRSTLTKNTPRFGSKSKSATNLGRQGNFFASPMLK", "experiment": "blockers of MgcRacGAP-driven Rac1 GTP hydrolysis – biochemical, ADP Hunter fluorescence, primary and confirmatory, confirmation (AID 624330);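 note: fluorescence reports GDP produced by GAP-driven GTP hydrolysis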", "conditions": "MgcRacGAP-stimulated Rac1 GTP hydrolysis, at 30 µM, hits give high values, GST-tagged Rac1 F28L mutant substrate", "values": [{"smiles": "COc1ccccc1N1CCN(Cc2ccco2)CC1", "inhibition": "inconclusive: 33.4%"}, {"smiles": "CC(=O)Nc1ccc(S(=O)(=O)Nc2nc3ccccc3nc2Nc2ccc(O)cc2)cc1", "inhibition": "inconclusive: 48.9%"}, {"smiles": "COc1ccccc1-c1nnc2n1N=C(c1ccc(O)c(O)c1)CS2", "inhibition": "inconclusive: 84.3%"}, {"smiles": "COc1ccc(CN2C(=O)c3ccccc3C2=O)cc1", "inhibition": "inactive: -0.09%"}, {"smiles": "COc1ccc(/C=N/NC(=O)Cc2cccs2)cc1", "inhibition": "inactive: 3.05%"}, {"smiles": "CN1CCN(C(=S)C(=O)Nc2ccc(Br)cc2)CC1", "inhibition": "inconclusive: 43.2%"}, {"smiles": "Cn1nnnc1SCC1=C(C(=O)O)N2C(=O)[C@@H](NC(=O)[C@H](O)c3ccccc3)[C@H]2SC1", "inhibition": "inconclusive: 35%"}, {"smiles": "Cc1nc(N)sc1-c1csc(N(C)c2ccc(O)cc2)n1", "inhibition": "inconclusive: 35%"}, {"smiles": "CCN(CC)CCNc1ncnc2c1sc1nc(N3CCOCC3)c3c(c12)CCCC3", "inhibition": "inconclusive: 35%"}, {"smiles": "S=c1nc(-c2ccccc2)[nH]n1-c1ccccc1", "inhibition": "inconclusive: 32.1%"}, {"smiles": "S=c1ncc2[nH]c(=S)[nH]c2[nH]1", "inhibition": "inconclusive: 80.1%"}, {"smiles": "OC(CNC1CCCCC1)CON=C1CCSc2c(Cl)cccc21", "note": "(stereo not drawn)", "inhibition": "inconclusive: 35.6%"}, {"smiles": "COc1cccc(Oc2ccc3nnc(C(F)(F)F)n3n2)c1", "inhibition": "inactive: -1.34%"}, {"smiles": "O=C(Cn1c(=O)n(Cc2ccco2)c(=O)c2c3c(sc21)CCCCC3)Nc1ccccc1", "inhibition": "inconclusive: 39%"}, {"smiles": "COc1cc(/C=N/Nc2ccccn2)ccc1O", "inhibition": "inconclusive: 69.4%"}, {"smiles": "CC(C)(C)c1ccc(O)c(N=Cc2cc(Br)ccc2O)c1", "inhibition": "inconclusive: 35.5%"}, {"smiles": "CC(C)C/C(O)=C/c1nc2cc(Cl)ccc2oc1=O", "inhibition": "inconclusive: 89.3%"}, {"smiles": "COc1ccc(/C=N/NC(=O)c2ccc(C)nc2)cc1O", "inhibition": "inconclusive: 34.7%"}, {"smiles": "CC(NC(=O)CNC(=O)c1cccc(Cl)c1)c1ccccc1", "note": "(stereo not drawn)", "inhibition": "inactive: 0.16%"}, {"smiles": "O=c1cc(CN2CCN(Cc3ccccc3)CC2)c2ccc(O)c(O)c2o1", "inhibition": "inconclusive: 34.9%"}, {"smiles": "CCC(C)N(C(=O)COC(=O)/C=C/c1ccc(O)c(OC)c1)C1CCS(=O)(=O)C1", "note": "(stereo not drawn)", "inhibition": "inconclusive: 94.4%"}, {"smiles": "O=C(c1cccc(Cl)c1)N1CCN(C2CCCCCC2)CC1", "inhibition": "inconclusive: 35.8%"}, {"smiles": "CCOC(=O)Nc1ccc(Oc2ccccc2)cc1", "inhibition": "inactive: 1.24%"}, {"smiles": "CCOc1ccc(CN2CCN(C(=O)c3cccc(F)c3)CC2)cc1", "inhibition": "inconclusive: 21.8%"}, {"smiles": "O=C(Nc1ccc(Nc2ccccc2)cc1)c1ccccc1F", "inhibition": "inconclusive: 32.6%"}, {"smiles": "Cn1c(SCC(=O)c2ccc(O)c(O)c2)nnc1-c1ccccc1", "inhibition": "inconclusive: 33.1%"}, {"smiles": "CCCCn1c(N)nc2ccccc21", "inhibition": "inactive: 1.51%"}, {"smiles": "Oc1ccc2ccccc2c1N=Nc1ccccc1F", "inhibition": "inconclusive: 54.6%"}, {"smiles": "Cc1ccc(OCC(=O)NNC(=O)C2CC(=O)N(c3ccc4c(c3)OCCO4)C2)cc1", "note": "(stereo not drawn)", "inhibition": "inactive: 6.61%"}, {"smiles": "Nc1nc2ccc(S(=O)(=O)N3CCCCC3)cc2s1", "inhibition": "inconclusive: 47.3%"}, {"smiles": "O=C(Nc1ccc2c(c1)OCO2)C1CCCN1C(=O)OCc1ccccc1", "note": "(stereo not drawn)", "inhibition": "inactive: 6.44%"}, {"smiles": "COc1ccc(/C(N)=N/OC(=O)Cc2cccs2)cc1", "inhibition": "inactive: 5.03%"}, {"smiles": "COCCNC(=O)Nc1ccc2nc(-c3ccco3)c(-c3ccco3)nc2c1", "inhibition": "inconclusive: 63%"}, {"smiles": "O=C(O)CCCNc1cc(N2CCN(C(=O)c3ccco3)CC2)c2noc3c2c1C(=O)c1ccccc1-3", "inhibition": "inconclusive: 41%"}, {"smiles": "C/C(=N\\NC(=O)CNC(=O)c1ccccc1F)c1ccco1", "inhibition": "inactive: 2.16%"}, {"smiles": "COc1cccc(N2CCN(Cc3ncc(-c4ccccc4)o3)CC2)c1", "inhibition": "inactive: 7.37%"}, {"smiles": "Cc1ccc[n+](CC(=O)Nc2ccc(C)c(C)c2)c1", "inhibition": "inactive: -1.74%"}, {"smiles": "Cc1ccc(OCCNC(=O)c2ccc(C)cc2)cc1", "inhibition": "inactive: -0.09%"}, {"smiles": "O=C(Nc1nc2ccccc2[nH]1)Nc1ccccc1F", "inhibition": "inactive: -2.47%"}, {"smiles": "CCCC1NC(=O)c2cccnc2-n2c1nc1ccc(Cl)cc1c2=O", "note": "(stereo not drawn)", "inhibition": "inactive: 13.8%"}, {"smiles": "O=c1c2ccccc2sn1-c1cc(S(=O)(=O)N2CCOCC2)ccc1N1CCOCC1", "inhibition": "inconclusive: 109%"}, {"smiles": "CCC(=O)c1ccccc1OCCCCn1cncn1", "inhibition": "inconclusive: 33.6%"}, {"smiles": "CN(C)CCCNc1ncnc2scc(-c3ccccc3)c12", "inhibition": "inconclusive: 33%"}, {"smiles": "N#CCC(=N)N1CCN(c2ccc(F)cc2)CC1", "inhibition": "inactive: 1.28%"}, {"smiles": "C/C(=N\\Nc1ccc(S(=O)(=O)N2CCCCC2)cn1)c1cccc(Br)c1", "inhibition": "inactive: 3.57%"}, {"smiles": "COc1ccc(CNCc2cc(OC)ccc2OC)cc1", "inhibition": "inconclusive: 32.3%"}, {"smiles": "O=C(Oc1ccc(N(C(=O)c2ccncc2)S(=O)(=O)c2ccc(Cl)cc2)cc1)c1ccncc1", "inhibition": "inconclusive: 35.3%"}, {"smiles": "Cc1nc(N)sc1N=Nc1c(C)n(C)n(-c2ccccc2)c1=O", "inhibition": "inconclusive: 73.8%"}, {"smiles": "COc1cc(CN2CCCN(C)CC2)cc([N+](=O)[O-])c1O", "inhibition": "inconclusive: 35.1%"}, {"smiles": "CCN(CC)c1ccc(NS(=O)(=O)c2ccc3c(c2)oc(=O)n3C)c(C)c1", "inhibition": "inconclusive: 33.4%"}, {"smiles": "COc1cc(/C=C(\\C#N)C(=O)NCC2CCCO2)ccc1O", "note": "(stereo not drawn)", "inhibition": "inconclusive: 107%"}, {"smiles": "CS(=O)(=O)c1ccc(S(=O)CC(=O)OCc2ccccc2)c([N+](=O)[O-])c1", "note": "(stereo not drawn)", "inhibition": "inconclusive: 36.8%"}, {"smiles": "O=c1c2c3c(sc2[nH]c(=S)n1Cc1ccco1)CCC3", "inhibition": "inconclusive: 55.4%"}, {"smiles": "COc1cc(NCCCn2cnc3c(OC)ncnc32)cc(OC)c1OC", "inhibition": "inconclusive: 31.9%"}, {"smiles": "Cc1cc(/C=C2\\SC(=S)NC2=O)c(C)n1C", "inhibition": "inactive: 26.3%"}, {"smiles": "COc1cc(NS(=O)(=O)c2ccc(NC(=S)NC(=O)/C=C/c3ccco3)cc2)ncn1", "inhibition": "inconclusive: 37.3%"}, {"smiles": "CC[C@]12c3[nH]c4ccc(Cl)cc4c3CCN1C(=O)[C@@H](CC(=O)NCc1ccco1)C[C@@H]2C(=O)N1CCN(C(=O)C2CC2)CC1", "inhibition": "inactive: 9.23%"}, {"smiles": "CCOC(=O)C1CCN(Cc2ccc(O)c(OC)c2)CC1", "inhibition": "inactive: 27.4%"}, {"smiles": "Cc1ccccc1N(CC(=O)N1CCCC1)S(=O)(=O)c1ccc(Cl)cc1", "inhibition": "inactive: 5.47%"}, {"smiles": "COc1ccc(OC)c(S(=O)(=O)NCC(=O)NC2CCCc3ccccc32)c1", "note": "(stereo not drawn)", "inhibition": "inactive: 6.06%"}, {"smiles": "Cc1cc2c(N=O)c(NO)ccc2[nH]1", "inhibition": "inconclusive: 65.8%"}, {"smiles": "CN(C)c1ccc(Nc2c3c4c(cccc4n(C)c2=O)C(=O)c2ccccc2-3)cc1", "inhibition": "inconclusive: 48.2%"}, {"smiles": "Oc1ccc(N=Nc2c(O)ccc3ccccc23)cc1", "inhibition": "inconclusive: 32.5%"}, {"smiles": "CC(C)(C)C(=O)Nc1nc(=S)ss1", "inhibition": "inactive: 11.6%"}, {"smiles": "CC(C)(C)c1ccc(OCCCN2CCCC2)cc1", "inhibition": "inconclusive: 35%"}, {"smiles": "CC(=O)Nc1ccc(N2CCCCC2)cc1", "inhibition": "inconclusive: 34.1%"}, {"smiles": "COC(=O)c1cc(NCc2c(F)cccc2Cl)ccc1N1CCOCC1", "inhibition": "inactive: 23.3%"}, {"smiles": "Brc1ccc(CN2CCN(Cc3c[nH]c4ccccc34)CC2)cc1", "inhibition": "inconclusive: 33.5%"}, {"smiles": "CCOC(=O)c1c(N)sc(-c2ccccc2)c1C", "inhibition": "inactive: 27.2%"}, {"smiles": "Cc1ccccc1C(=O)NC1CCN(CC(=O)Nc2ccc(N(C)C)cc2)CC1", "inhibition": "inconclusive: 37.1%"}, {"smiles": "O=C(CCCc1c[nH]c2ccccc12)N[C@@H](Cc1c[nH]c2ccccc12)C(=O)O", "inhibition": "inactive: 9.15%"}, {"smiles": "O=C(Cc1cccc(F)c1)Nc1ccc2c(c1)CCC2", "inhibition": "inactive: 6.98%"}, {"smiles": "COc1ccc(C(=O)/C=C/c2ccccc2OC)c(OC(=O)c2ccc([N+](=O)[O-])cc2)c1", "inhibition": "inactive: 8.99%"}, {"smiles": "COc1cc(OC)c(OC)cc1CN1CCN(c2ccc(F)cc2)CC1", "inhibition": "inactive: 10.3%"}, {"smiles": "O=c1/c(=C/c2ccccn2)sc2nc3ccccc3n12", "inhibition": "inactive: 6.92%"}, {"smiles": "O=c1oc2ccc(Cl)cc2nc1/C=C(\\O)c1cccs1", "inhibition": "inactive: 19.2%"}, {"smiles": "COc1cccc(C(=O)N2CCN(Cc3ccccn3)CC2)c1", "inhibition": "inconclusive: 32.4%"}, {"smiles": "CC(=O)N1CCN(c2ccc(NC(=O)c3ccc(F)cc3)cc2)CC1", "inhibition": "inactive: 13.2%"}, {"smiles": "CCOc1cc(CNc2ncn[nH]2)ccc1OCC(=O)NC(C)(C)C", "inhibition": "inactive: 1.46%"}, {"smiles": "C=CCOC(=O)C1=C(C)N=c2s/c(=C3\\C(=O)N(CC(=O)O)c4ccccc43)c(=O)n2C1c1ccc(OC)cc1", "note": "(stereo not drawn)", "inhibition": "inconclusive: 36%"}, {"smiles": "COc1ccc(/C=C2\\CCCC(C(=O)C(F)(F)F)=C2O)cc1", "inhibition": "inactive: 4.33%"}, {"smiles": "Cc1ccccc1N=Nc1c(N)n[nH]c1N", "inhibition": "inconclusive: 32.4%"}, {"smiles": "Oc1ccc(N2CCN(c3ncnc4sc5c(c34)CCC5)CC2)cc1", "inhibition": "inconclusive: 70.7%"}, {"smiles": "O=C(CCCN1C(=O)/C(=C/c2ccco2)SC1=S)Nc1ccccc1C(=O)O", "inhibition": "inconclusive: 33.3%"}, {"smiles": "CCOC(=O)c1c(-c2ccc(OC)cc2)csc1/N=C/C1=C(O)CCCC1=O", "inhibition": "inconclusive: 33%"}, {"smiles": "COc1cc(/C=N/NS(=O)(=O)c2ccc(Br)cc2)ccc1O", "inhibition": "inconclusive: 87.9%"}, {"smiles": "C#CCOCCOCCOCCNc1nc(N2CCN(C(=O)CCCCCCCCCCNC(=O)[C@H](CCCCN)n3cc(C)nn3)CC2)nc(N2CCN(C(=O)CCCCCCCCCCNC(=O)[C@@H]([C@H](C)CC)n3cc(CCCCCN)nn3)CC2)n1", "inhibition": "inconclusive: 78.7%"}, {"smiles": "CN(C)c1ccc(N/C=C/C(=O)C(F)(F)F)cc1", "inhibition": "inconclusive: 81.2%"}, {"smiles": "COc1ccc(CCN(C)Cc2c(O)ccc3cc(Br)ccc23)cc1OC", "inhibition": "inconclusive: 35.3%"}, {"smiles": "CCn1c(CNC(=O)c2ccco2)nnc1SCC(=O)c1ccccc1", "inhibition": "inactive: 13.1%"}, {"smiles": "Cc1ccc(C(=O)Nc2ccncc2)cc1S(=O)(=O)N1CCOCC1", "inhibition": "inactive: 5.06%"}, {"smiles": "CCc1ccc(-c2cc(C(=O)O)c3ccccc3n2)s1", "inhibition": "inactive: -3.07%"}, {"smiles": "O=C1CN(C(=O)CNCc2ccccc2Cl)c2ccccc2N1", "inhibition": "inconclusive: 32.4%"}]}]}
